Experimental data taken from the supplement of paper PMC8728848.
Some of the results follow.

How the values were obtained:
Experiment in all cases: glycan array binding signal (z-score within array); higher = stronger binding
Details in all cases: glycan notation: IUPAC condensed, linker removed
[1] = biological target: Neu5Ac(a2-3)Gal(b1-4)GlcNAc(b1-6)GalNAc
Method in brief: (§1)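 The Consortium for Functional Glycomics database supplied 3228 glycan arrays, of which those lacking an available protein sequence were dropped. The binding signal, a within-array Z-score, was averaged across arrays of the same protein sequence and across linkers. Negative scores can be read as non-binding.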

[2] = biological target: Neu5Ac(a2-3)Gal(b1-4)GlcNAc(b1-6)[Gal(b1-3)]GalNAc
Method in brief: as §1

[3] = biological target: Neu5Ac(a2-3)Gal(b1-4)GlcNAc(b1-6)[Neu5Ac(a2-3)Gal(b1-3)]GalNAc
Method in brief: as §1

[4] = biological target: Neu5Ac(a2-3)Gal(b1-4)GlcNAc6S
Method in brief: as §1

[5] = biological target: Neu5Ac(a2-3)Gal(b1-4)[Fuc(a1-3)]GlcNAc
Method in brief: as §1

[6] = biological target: Neu5Ac(a2-3)Gal(b1-4)[Fuc(a1-3)]GlcNAc(b1-2)Man
Method in brief: as §1

[7] = biological target: Neu5Ac(a2-3)Gal(b1-4)[Fuc(a1-3)]GlcNAc(b1-3)Gal
Method in brief: as §1

[8] = biological target: Neu5Ac(a2-3)Gal(b1-4)[Fuc(a1-3)]GlcNAc(b1-3)Gal(b1-4)GlcNAc
Method in brief: as §1

[9] = biological target: Neu5Ac(a2-3)Gal(b1-4)[Fuc(a1-3)]GlcNAc(b1-3)Gal(b1-4)[Fuc(a1-3)]GlcNAc(b1-3)Gal(b1-4)[Fuc(a1-3)]GlcNAc
Method in brief: as §1

[10] = biological target: Neu5Ac(a2-3)Gal(b1-4)[Fuc(a1-3)]GlcNAc(b1-3)GalNAc
Method in brief: as §1

[11] = biological target: Neu5Ac(a2-3)Gal(b1-4)[Fuc(a1-3)]GlcNAc(b1-6)[Gal(b1-3)]GalNAc
Method in brief: as §1

[12] = biological target: Neu5Ac(a2-3)Gal(b1-4)[Fuc(a1-3)]GlcNAc(b1-6)[Neu5Ac(a2-3)Gal(b1-3)]GalNAc
Method in brief: as §1

[13] = biological target: Neu5Ac(a2-3)Gal(b1-4)[Fuc(a1-3)]GlcNAc6S
Method in brief: as §1

[14] = biological target: Neu5Ac(a2-3)Gal6S(b1-4)GlcNAc
Method in brief: as §1

[15] = biological target: Neu5Ac(a2-3)Gal6S(b1-4)[Fuc(a1-3)]GlcNAc
Method in brief: as §1

Neu5Ac(a2-3)GalNAc = biological target: Neu5Ac(a2-3)GalNAc
Method in brief: as §1

[16] = biological target: Neu5Ac(a2-3)GalNAc(b1-4)GlcNAc
Method in brief: as §1

[17] = biological target: Neu5Ac(a2-3)[GalNAc(b1-4)]Gal(b1-4)Glc
Method in brief: as §1

[18] = biological target: Neu5Ac(a2-3)[GalNAc(b1-4)]Gal(b1-4)GlcNAc
Method in brief: as §1

[19] = biological target: Neu5Ac(a2-3)[GalNAc(b1-4)]Gal(b1-4)GlcNAc(b1-3)GalNAc
Method in brief: as §1

[20] = biological target: Neu5Ac(a2-3)[Neu5Ac(a2-6)]GalNAc
Method in brief: as §1

Neu5Ac(a2-6)Gal = biological target: Neu5Ac(a2-6)Gal
Method in brief: as §1

[21] = biological target: Neu5Ac(a2-6)Gal(b1-3)GlcNAc(b1-3)[Gal(b1-4)GlcNAc(b1-6)]Gal(b1-4)Glc
Method in brief: as §1

Neu5Ac(a2-6)Gal(b1-4)Glc = biological target: Neu5Ac(a2-6)Gal(b1-4)Glc
Method in brief: as §1

[22] = biological target: Neu5Ac(a2-6)Gal(b1-4)GlcNAc
Method in brief: as §1

[23] = biological target: Neu5Ac(a2-6)Gal(b1-4)GlcNAc(b1-2)Man
Method in brief: as §1

[24] = biological target: Neu5Ac(a2-6)Gal(b1-4)GlcNAc(b1-2)Man(a1-3)Man(b1-4)GlcNAc(b1-4)GlcNAc
Method in brief: as §1

[25] = biological target: Neu5Ac(a2-6)Gal(b1-4)GlcNAc(b1-2)Man(a1-3)[Gal(b1-4)GlcNAc(b1-2)Man(a1-6)]Man(b1-4)GlcNAc(b1-4)GlcNAc
Method in brief: as §1

[26] = biological target: Neu5Ac(a2-6)Gal(b1-4)GlcNAc(b1-2)Man(a1-3)[GlcNAc(b1-2)Man(a1-6)]Man(b1-4)GlcNAc(b1-4)GlcNAc
Method in brief: as §1

[27] = biological target: Neu5Ac(a2-6)Gal(b1-4)GlcNAc(b1-2)Man(a1-3)[GlcNAc(b1-4)][Neu5Ac(a2-6)Gal(b1-4)GlcNAc(b1-2)Man(a1-6)]Man(b1-4)GlcNAc(b1-4)GlcNAc
Method in brief: as §1

[28] = biological target: Neu5Ac(a2-6)Gal(b1-4)GlcNAc(b1-2)Man(a1-3)[Man(a1-6)]Man(b1-4)GlcNAc(b1-4)GlcNAc
Method in brief: as §1

[29] = biological target: Neu5Ac(a2-6)Gal(b1-4)GlcNAc(b1-2)Man(a1-3)[Neu5Ac(a2-3)Gal(b1-4)GlcNAc(b1-2)Man(a1-6)]Man(b1-4)GlcNAc(b1-4)GlcNAc
Method in brief: as §1

[30] = biological target: Neu5Ac(a2-6)Gal(b1-4)GlcNAc(b1-2)Man(a1-3)[Neu5Ac(a2-6)Gal(b1-4)GlcNAc(b1-2)Man(a1-6)]Man(b1-4)GlcNAc(b1-4)GlcNAc
Method in brief: as §1

[31] = biological target: Neu5Ac(a2-6)Gal(b1-4)GlcNAc(b1-2)Man(a1-3)[Neu5Ac(a2-6)Gal(b1-4)GlcNAc(b1-2)Man(a1-6)]Man(b1-4)GlcNAc(b1-4)[Fuc(a1-6)]GlcNAc
Method in brief: as §1

[32] = biological target: Neu5Ac(a2-6)Gal(b1-4)GlcNAc(b1-2)Man(a1-6)Man(b1-4)GlcNAc(b1-4)GlcNAc
Method in brief: as §1

[33] = biological target: Neu5Ac(a2-6)Gal(b1-4)GlcNAc(b1-2)Man(a1-6)[Gal(b1-4)GlcNAc(b1-2)Man(a1-3)]Man(b1-4)GlcNAc(b1-4)GlcNAc
Method in brief: as §1

[34] = biological target: Neu5Ac(a2-6)Gal(b1-4)GlcNAc(b1-2)Man(a1-6)[GlcNAc(b1-2)Man(a1-3)]Man(b1-4)GlcNAc(b1-4)GlcNAc
Method in brief: as §1

[35] = biological target: Neu5Ac(a2-6)Gal(b1-4)GlcNAc(b1-2)Man(a1-6)[Man(a1-3)]Man(b1-4)GlcNAc(b1-4)GlcNAc
Method in brief: as §1

[36] = biological target: Neu5Ac(a2-6)Gal(b1-4)GlcNAc(b1-2)[Neu5Ac(a2-6)Gal(b1-4)GlcNAc(b1-4)]Man(a1-3)[GlcNAc(b1-4)][Neu5Ac(a2-6)Gal(b1-4)GlcNAc(b1-2)[Neu5Ac(a2-6)Gal(b1-4)GlcNAc(b1-6)]Man(a1-6)]Man(b1-4)GlcNAc(b1-4)GlcNAc
Method in brief: as §1

[37] = biological target: Neu5Ac(a2-6)Gal(b1-4)GlcNAc(b1-2)[Neu5Ac(a2-6)Gal(b1-4)GlcNAc(b1-4)]Man(a1-3)[GlcNAc(b1-4)][Neu5Ac(a2-6)Gal(b1-4)GlcNAc(b1-4)Man(a1-6)]Man(b1-4)GlcNAc(b1-4)GlcNAc
Method in brief: as §1

[38] = biological target: Neu5Ac(a2-6)Gal(b1-4)GlcNAc(b1-2)[Neu5Ac(a2-6)Gal(b1-4)GlcNAc(b1-6)]Man(a1-6)[Neu5Ac(a2-6)Gal(b1-4)GlcNAc(b1-2)Man(a1-3)][GlcNAc(b1-4)]Man(b1-4)GlcNAc(b1-4)GlcNAc
Method in brief: as §1

[39] = biological target: Neu5Ac(a2-6)Gal(b1-4)GlcNAc(b1-3)Gal(b1-3)GlcNAc
Method in brief: as §1

[40] = biological target: Neu5Ac(a2-6)Gal(b1-4)GlcNAc(b1-3)Gal(b1-4)GlcNAc
Method in brief: as §1

[41] = biological target: Neu5Ac(a2-6)Gal(b1-4)GlcNAc(b1-3)Gal(b1-4)GlcNAc(b1-2)Man(a1-3)[Neu5Ac(a2-6)Gal(b1-4)GlcNAc(b1-3)Gal(b1-4)GlcNAc(b1-2)Man(a1-6)]GalNAc
Method in brief: as §1

[42] = biological target: Neu5Ac(a2-6)Gal(b1-4)GlcNAc(b1-3)Gal(b1-4)GlcNAc(b1-3)Gal(b1-4)GlcNAc
Method in brief: as §1

[43] = biological target: Neu5Ac(a2-6)Gal(b1-4)GlcNAc(b1-3)Gal(b1-4)GlcNAc(b1-3)Gal(b1-4)GlcNAc(b1-2)Man(a1-3)[Neu5Ac(a2-6)Gal(b1-4)GlcNAc(b1-3)Gal(b1-4)GlcNAc(b1-3)Gal(b1-4)GlcNAc(b1-2)Man(a1-6)]GalNAc
Method in brief: as §1

B1: SBD-G4S3-Fc (protein)
chain: MASIPSSASVQLDSYNYDGSTFSGKIYVKNIAYSKKVTVVYADGSDNWNNNGNIIAASFSGPISGSNYEYWTFSASVKGIKEFYIKYEVSGKTYYDNNNSANYQVSTGGGGSGGGGSGGGGSEFVPRDCGCKPCICTVPEVSSVFIFPPKPKDVLTITLTPKVTCVVVDISKDDPEVQFSWFVDDVEVHTAQTQPREEQFNSTFRSVSELPIMHQDWLNGKEFKCRVNSAAFPAPIEKTISKTKGRPKAPQVYTIPPPKEQMAKDKVSLTCMITDFFPEDITVEWQWNGQPAENYKNTQPIMDTDGSYFVYSKLNVQKSNWEAGNTFTCSVLHEGLHNHHTEKSLSHSPGAA
- glycan array binding signal (z-score) [1]: -0.109
- glycan array binding signal (z-score) [2]: 0.077
- glycan array binding signal (z-score) [3]: 0.04
- glycan array binding signal (z-score) [4]: -0.066
- glycan array binding signal (z-score) [5]: -0.343
- glycan array binding signal (z-score) [6]: -0.233
- glycan array binding signal (z-score) [7]: -0.272
- glycan array binding signal (z-score) [8]: 0.189
- glycan array binding signal (z-score) [9]: -0.379
- glycan array binding signal (z-score) [10]: -0.076
- glycan array binding signal (z-score) [11]: 0.362
- glycan array binding signal (z-score) [12]: -0.117
- glycan array binding signal (z-score) [13]: -0.046
- glycan array binding signal (z-score) [14]: -0.25
- glycan array binding signal (z-score) [15]: -0.454
- glycan array binding signal (z-score) (Neu5Ac(a2-3)GalNAc): -0.467
- glycan array binding signal (z-score) [16]: -0.239
- glycan array binding signal (z-score) [17]: -0.229
- glycan array binding signal (z-score) [18]: -0.269
- glycan array binding signal (z-score) [19]: 0.103
- glycan array binding signal (z-score) [20]: 0.066
- glycan array binding signal (z-score) (Neu5Ac(a2-6)Gal): -0.041
- glycan array binding signal (z-score) [21]: -0.05
- glycan array binding signal (z-score) (Neu5Ac(a2-6)Gal(b1-4)Glc): -0.384
- glycan array binding signal (z-score) [22]: -0.064
- glycan array binding signal (z-score) [23]: -0.16
- glycan array binding signal (z-score) [24]: 0.613
- glycan array binding signal (z-score) [25]: 0.029
- glycan array binding signal (z-score) [26]: 0.057
- glycan array binding signal (z-score) [27]: -0.262
- glycan array binding signal (z-score) [28]: -0.206
- glycan array binding signal (z-score) [29]: -0.142
- glycan array binding signal (z-score) [30]: 0.104
- glycan array binding signal (z-score) [31]: -0.3
- glycan array binding signal (z-score) [32]: -0.219
- glycan array binding signal (z-score) [33]: -0.395
- glycan array binding signal (z-score) [34]: 0.137
- glycan array binding signal (z-score) [35]: 0.293
- glycan array binding signal (z-score) [36]: 0.258
- glycan array binding signal (z-score) [37]: -0.012
- glycan array binding signal (z-score) [38]: -0.196
- glycan array binding signal (z-score) [39]: -0.614
- glycan array binding signal (z-score) [40]: -0.014
- glycan array binding signal (z-score) [41]: -0.051
- glycan array binding signal (z-score) [42]: 0.075
- glycan array binding signal (z-score) [43]: 1.23
